# The whole screen tested about 350,000 compounds, of which about 9,900 (2.8%) were called active. The inconclusive results got no clear call from the source; some entries with a clear call stand among them for comparison. Calls follow the shape of the dose curve; as a rule, active = well fitted activation curve with a large enough effect; inconclusive = small, poorly fitted or top-dose-only effect; inactive = no such curve, though single readings can be large or run the other way. No potency is given beside an inconclusive call; the fits are too rough.
# Experiment: A quantitative high throughput screen for small molecules that induce DNA re-replication in MCF 10a normal breast cells. Also: nearly all actives have a fitted effect of over 50% in size. As to activity, positive = re-replication: % of control where 0% means no effect.
# Settings: MCF 10A DNA re-replication, Hoechst nuclear intensity, 48 h; activity, positive = re-replication: at 46.1 µM (top of the series)
# Potency is read from the fitted curve at half-maximal effect; tags tell the direction and shape of the fitted curve.
Structure (SMILES),Potency,"activity, positive = re-replication"
CN=C1c2c(-c3ccccc3)c3cc(OC)ccc3n2CCN1C,"inconclusive [activator, single point]",–
O=S(=O)(/N=C/c1c(O)ccc2ccccc12)c1ccccc1,"inconclusive [activator, partial curve, poor fit]",–
Oc1c(Br)cc(Br)cc1C=NCc1ccc(F)cc1,–,inactive: 23.9%
Cc1cc2c([nH]c3ccccc32)c(C)n1,"inconclusive [activator, partial curve]",–
CCOC(=O)CC(=O)CSc1nc2c(sc(=S)n2-c2ccccc2)c(=O)[nH]1,active: 16.4 µM,–
O=C1ON=C(c2ccc(Cl)cc2)/C1=C/c1ccc(O)cc1,"inconclusive [activator, single point]",–
Cc1ccccc1OCC(=O)Nn1c(COc2ccccc2)nc2ccccc2c1=O,"inconclusive [activator, single point]",–
COc1cc(C2c3[nH]c4ccccc4c3C[C@H]3C(=O)N(C4CC4)CC(=O)N23)ccc1OC(C)C (stereo not given in full),–,inactive: 10.1%
O=C1Nc2ccc(Br)cc2/C1=N/N=C/C1=C(N2CCOCC2)C(=C\c2ccccc2)/CC1,"inconclusive [activator, partial curve, poor fit]",–
CC(C)Cc1ccc(C(C)C(N)=Nc2ccc(O)cc2)cc1 (stereo not given),"inconclusive [activator, partial curve, poor fit]",–
CC(C)c1ccc(/C=C2\SC(=O)N(CC(=O)NC3C=CS(=O)(=O)C3)C2=O)cc1 (stereo not given),–,inactive: -5.61%
Cc1ccc2nc(NC(=O)c3ccco3)sc2c1,"inconclusive [activator, single point]",–
Cc1cccc(NC(=O)c2cccc(S(=O)(=O)Nc3ccccc3C(=O)O)c2)c1,"inconclusive [activator, single point]",–
CC1=NN(Cc2ccccc2)C(=O)C1C(c1ccc(Cl)cc1)C(C#N)C#N (stereo not given),"inconclusive [activator, single point]",–
CC(C)OC(=O)c1sc2nc3c(cc2c1N)C(=O)CCC3,"inconclusive [activator, partial curve, poor fit]",–
CC(=O)c1sc(NC(=O)c2ccccc2)nc1-c1ccccc1,active: 0.651 µM,–
S=C(NCCc1ccccc1)N1CCN(C2CCCCC2)CC1,"inconclusive [activator, partial curve, poor fit]",–
COCCN1C(=O)c2ccc(C(=O)Nc3nccs3)cc2C1=O,"inconclusive [activator, full curve, poor fit]",–
CNc1oc(-c2ccccc2)nc1C#N,–,inactive: 0.769%
O=C1COc2ccc(S(=O)(=O)NCc3ccccc3)cc2N1,"inconclusive [activator, single point]",–
N#CC1CC(c2ccc([N+](=O)[O-])cc2)=NN1c1ccc([N+](=O)[O-])cc1 (stereo not given),active: 6.51 µM,–
O=C(C(=O)c1cc(Br)ccc1O)c1cc(Br)ccc1O,active: 2.59 µM,–
COc1ccccc1NC(=O)COc1ccc(C(=O)NCc2ccccc2)cc1OC,–,inactive: 25.1%
C=CCNC(=O)c1cc(Cl)cc(Cl)c1,–,inactive: -3.37%

Structure (SMILES),Potency,"activity, positive = re-replication"
Cc1ccccc1NC(=O)CSc1cn[nH]n1,"inconclusive [activator, single point]",–
COC(=O)c1c(NC(=O)CCl)sc(C(=O)N2CCOCC2)c1C,"inconclusive [activator, single point]",–
O=[N+]([O-])c1ccc(NC2CCCC2)cc1,–,inactive: 11.1%
CC(C)(C)c1cc(Cl)c(O)c(NC(=S)NC(=O)c2cccnc2)c1,active: 14.6 µM,–
CC(C)(C)OC(=O)C[C@H]1C/C=C\C[C@H](CC(=O)NCCO)C(=O)NC[C@H](c2ccccc2)OC1=O,–,inactive: 23.1%
O=C(COc1ccccc1[N+](=O)[O-])Nc1ccc(NC(=O)c2cc3ccccc3o2)cc1,"inconclusive [activator, single point]",–
CCOC(=O)c1cc(-c2ccc(OC)cc2OC)nn1-c1ccc(C(=O)O)cc1,"inconclusive [activator, partial curve, poor fit]",–
CN(C(=O)Nc1ccc(Cl)cc1Cl)[C@H]1c2cc(Br)ccc2OC[C@H]1CO,"inconclusive [activator, single point]",–
O=C(Nc1cccc(Cl)c1)c1nc[nH]c1C(=O)NCCCCNC(=O)c1[nH]cnc1C(=O)Nc1cccc(Cl)c1,–,inactive: -0.0326%
COc1cccc(-c2cc3c(-n4cccc4)ncnc3o2)c1,"inconclusive [activator, partial curve, poor fit]",–
N#CC1=C(N)Oc2c(ccc3cccnc23)C1c1ccccc1 (stereo not given),active: 14.6 µM,–
O=C(NCCCN1CCOCC1)c1cc(-c2ccc(O)cc2)on1,–,inactive: -1.81%
CC(C)(C)c1ccc(OCCC(=O)OCC(=O)NC(=O)NC2CCCC2)cc1,"inconclusive [activator, partial curve]",–
COc1ccc(NC(=O)Nc2cccc3c2O[C@H](CN(C)C(=O)Nc2c(C)noc2C)[C@@H](C)CN([C@H](C)CO)C3=O)cc1,"inconclusive [activator, full curve, poor fit]",–
CC(C)n1c(-c2ccncc2)n[nH]c1=S,"inconclusive [activator, single point]",–
CC1CC(NC(=O)/C(C#N)=C/c2ccc[nH]2)CC(C)(C)C1 (stereo not given),"inconclusive [activator, single point]",–
Cc1nc(-c2ccccc2)nc2sc(C(=O)c3ccc(F)cc3)c(N)c12,active: 10.3 µM,–
NC(=O)c1ccc(NC(=O)COC(=O)CC2Sc3ccccc3NC2=O)cc1 (stereo not given),–,inactive: -2.31%
CC1=C(C)CC(C(=O)NC2CCN(C(C)C)CC2)C(C(=O)O)C1 (stereo not given),–,inactive: 7.61%
Cc1ccccc1NNC(=O)C(=O)NNc1ccccc1C,"inconclusive [activator, single point]",–
O=C(NC1CCCC1)C(c1ccc(Cl)cc1)N(Cc1ccc(F)cc1)C(=O)CCl (stereo not given),–,inactive: 16%
N#Cc1nc(Nc2cc(F)cc(F)c2)c2ncn(CC(F)F)c2n1,"inconclusive [activator, full curve, poor fit]",–
Cc1cc(C)c(S(=O)(=O)c2ccccc2)c(OC(=O)c2ccc(Cl)cc2Cl)n1,"inconclusive [activator, partial curve, poor fit]",–
O=C(CCN1C(=O)[C@H]2CC=CC[C@H]2C1=O)NCc1nc(-c2ccc(Cl)cc2)no1,"inconclusive [activator, partial curve, poor fit]",–

Structure (SMILES),Potency,"activity, positive = re-replication"
COc1ccccc1NS(=O)(=O)c1ccc(N/N=C/c2ccccc2OCC(=O)O)c([N+](=O)[O-])c1,"inconclusive [activator, single point]",–
CCN(CC)CCOC(=O)c1ccc(NC(=O)CCCN2C(=O)/C(=C/c3cccs3)SC2=S)cc1,"inconclusive [activator, partial curve, poor fit]",–
COc1ccc(OC)c(CN2CCC(CO)(CCOc3ccccc3)CC2)c1,–,inactive: 0.653%
COCCN(C(=O)c1cc(Cl)nc2ccccc12)c1c(N)n(Cc2ccccc2)c(=O)[nH]c1=O,–,inactive: 4.55%
CN(CC(=O)Nc1cc(Cl)cc(Cl)c1)Cc1cccs1,"inconclusive [activator, full curve, poor fit]",–
COc1c(C)cc(Br)cc1C(=O)NC(=S)NCc1ccco1,"inconclusive [activator, partial curve, poor fit]",–
Cc1ccc(-c2nn3c(C)nnc3c3ccccc23)cc1S(=O)(=O)NCc1ccccc1,"inconclusive [activator, partial curve]",–
COc1ccc(/C=C/C(=O)NCc2cnn(C)c2C)cc1COc1ccc(Br)cc1,"inconclusive [activator, single point]",–
COCCN(CC1CCCN(C2Cc3ccccc3C2)C1)C(=O)c1ccc(C(C)=O)cc1 (stereo not given),"inconclusive [activator, single point]",–
Cc1cc(C)c(Cn2cnc3ccccc32)c(C)c1,–,inactive: -1.93%
CC(=O)Nc1ccc2ccc3cccc4ccc1c2c34,active: 6.51 µM,–
O=C(O)CCCCCNC(=O)c1ccccc1Br,"inconclusive [activator, single point]",–
CN(C)C(CNC(=O)CSc1nc2sc3c(c2c(=O)n1C)CCC3)c1ccccc1 (stereo not given),"inconclusive [activator, partial curve, poor fit]",–
CCn1c(SCC(=O)NC2CCCCC2)nnc1-c1cc2cccc(OC)c2o1,"inconclusive [activator, partial curve, poor fit]",–
Cn1c(=O)c2c(ncn2CC(=O)N/N=C/C=C/c2ccccc2)n(C)c1=O,–,inactive: -2.97%
CC(C)Sc1nc2c(c(=O)[nH]c(=O)n2C)n1CCc1ccccc1,"inconclusive [activator, partial curve, poor fit]",–
Cn1c(=O)c2c(nc(N3CCCCCC3)n2Cc2cccc3ccccc23)n(C)c1=O,"inconclusive [activator, single point]",–
CC1CN(Cc2ccccc2)C(=S)NC1=O (stereo not given),–,inactive: 5.48%
COC(=O)c1c(NC(=O)/C=C/C(=O)O)sc(C)c1-c1ccc(C(C)C)cc1,active: 3.26 µM,–
COc1cccc(/C=N/NC(=O)c2c(C)nc3ccc(Br)cn23)c1O,–,inactive: -12.3%
CN1CCC(CO)(Cc2ccccc2)CC1,–,inactive: 4.61%
Cc1ccc(N(CC(N)=O)C2SC(=O)NC2=O)cc1 (stereo not given),"inconclusive [activator, single point]",–

# — PubChem BioAssay AID624296 (National Center for Advancing Translational Sciences (NCATS), 2012)
